From patent US5776720A, “Assay reagent” (priority 1995, dated 1998)

What was measured:
[1] = tested on: monocytes; assay: Ratio of disease to normal enzyme activity, inflammatory diseases (Table 5), monocytes; type: cell-based, human
[2] = tested on: granulocytes; assay: Ratio of disease to normal enzyme activity, inflammatory diseases (Table 5), granulocytes; type: cell-based, human
[3] = Inflam. Bowel Dis., MONOCYTES section (column head Lymphs)

Ratio disease/normal ([1]; Dermatomyositis, Monos)	Ratio disease/normal [1, 3]	Ratio disease/normal ([1]; JRA, Monos)	Ratio disease/normal ([1]; Kawasaki's Dis., Monos)	Ratio disease/normal ([1]; Lupus, Monos)	Ratio disease/normal ([1]; Rheumatic Fever, Monos)	Ratio disease/normal ([2]; Dermatomyositis, Grans)	Ratio disease/normal ([2]; Inflam. Bowel Dis., […])	Ratio disease/normal ([2]; JRA, Grans)	Ratio disease/normal ([2]; Kawasaki's Dis., Grans)	Ratio disease/normal ([2]; Lupus, Grans)	Ratio disease/normal ([2]; Rheumatic Fever, Grans)	Molecule
3.05	3.33	1.79	4.47	1.92	2.99	2.76	2.68	1.46	2.83	1.94	2.98	(carbobenzyloxycarbonyl-Gly-Pro)2 Rho 110 (modified) [Z--GP--M]
3.45	1.41	3.49	0.25	11.37	8.67	0.16	0.64	9.49	0.72	0.89	0.48	(Val-Lys)2 Rho 110 (modified) [VK--M]

Molecule	Ratio disease/normal ([1]; Dermatomyositis, Monos)	Ratio disease/normal [1, 3]	Ratio disease/normal ([1]; JRA, Monos)	Ratio disease/normal ([1]; Kawasaki's Dis., Monos)	Ratio disease/normal ([1]; Lupus, Monos)	Ratio disease/normal ([1]; Rheumatic Fever, Monos)	Ratio disease/normal ([2]; Dermatomyositis, Grans)	Ratio disease/normal ([2]; Inflam. Bowel Dis., […])	Ratio disease/normal ([2]; JRA, Grans)	Ratio disease/normal ([2]; Kawasaki's Dis., Grans)	Ratio disease/normal ([2]; Lupus, Grans)	Ratio disease/normal ([2]; Rheumatic Fever, Grans)
NCC(=O)Nc1ccc2c(c1)Oc1cc(NC(=O)CN)ccc1C21OC(=O)c2ccccc21 [GLY, (Gly)2 Rho 110]	–	–	–	–	–	–	1.12	1.78	–	–	1.42	–
